# Measured values taken from the supplement of paper PMC10126150.
# Values marked as one replicate rest on one cluster of the flow cell; about a third of the high ones do not repeat.
# System: ATP
# Assay: switch fluorescence ratio, 500 uM ATP over buffer (Cy3 cluster intensity, sum of 5 cycles each) (fold (ratio)); higher = stronger signal-on switching upon ATP binding; sequences stand for … in TCGTCGGCAGCGTCAGATGTGTATAAGAGACAGTTTTTTTTTTTTTTTTTTTTTTTTT…TC
# Details: aptamer strand: ATP DNA aptamer (quencher-CACCTGGGGGAGTATTGCGGAGGAAGG + anchor), 100 nM annealed; ATP concentration: 500 uM; one replicate
# How it was run: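 After annealing to 100 nM quencher-labelled ATP aptamer, Cy3-labelled switching-strand clusters on a modified Illumina MiSeq flow-cell were imaged in selection buffer. A second image followed after 15 min with 500 uM ATP at 22 °C, and five such buffer/ATP cycles were done, each separated by NaOH stripping and re-annealing. The fluorescence ratio, averaged per switch-domain sequence, is summed target-cycle over summed buffer-cycle Cy3 intensity per cluster, with clusters outside 100-1000 RFU excluded.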
# 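Further: ATP exposure 15 min at 22 °C before imaging.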
row,Sequence,switch fluorescence ratio
1,TACGGACCCT,1.08
2,TGCTTGTGAG,1.05
3,TCCACGATAA,1.62
4,CGCGCCCACG,1.04
5,GGTTATCTCG,1.01
6,CCTGCCAAA,2.19
7,GAGCAGGAAA,0.985
8,GATTAGCTTT,1.05
9,ACTAGCGCGC,1.02
10,TACGGCTTCA,1.04
11,CAGTAGGT,1.02
12,GGGACTATGT,1.02
13,TCGCTACT,1.81
14,AGCGTTTTGA,1.03
15,TCCTCGACCT,1.4
16,AAGGGGATCT,1.01
17,ATAGTCCTTG,0.954
18,TTAGGCGGC,1
19,CGCGGCTGC,1.05
20,ATTTTGAAAT,1.01
21,GGGCACGGGT,0.975
22,CAGTCCAAAT,0.969
23,CAGGAGTACT,1.03

row,Sequence,switch fluorescence ratio
1,CTTGAGCGTC,1.05
2,ACTTCTTGCG,1.05
3,ATAAGAGAGT,1.02
4,TCGTAGGAGT,1.07
5,AATACCGATA,1.02
6,AGGCCTTCTG,1.07
7,GCAGGCTA,0.994
8,TAGTATAGGG,1.04
9,ATCGTACTTA,1.1
10,CGCGCCGTGT,1.01
11,CAAACCTGC,1.53
12,CACTTGTTCG,1.03
13,CCAACCTGGG,1.04
14,ACATTTTGGG,0.948
15,TTTGCCAGCG,1.03
16,CCATGAGAAC,1.01
17,ATGAGTTGAG,0.994
18,TCGGTAGCGT,1.12
19,ATGGCTGCAC,1.01
20,GAAGGCTAAC,1.04
21,CGTCGAACGT,0.993
22,ATGGAAAGAT,0.994
23,CCTGCGGAGG,1.15

row,Sequence,switch fluorescence ratio
1,CGATCCGATG,1.02
2,GGGTCTCCTT,1.09
3,TTGGCGCTAT,0.988
4,GGTTTATGAT,0.989
5,ACTGCCCAAG,1.1
6,AGACACCAGT,0.983
7,CCAATGAAGA,0.971
8,CCTAATTTAT,0.998
9,ATGGAGGATC,0.958
10,TTGTGAGAG,1.03
11,CCCTTTTTTA,1.35
12,ATGAAATCTA,0.987
13,TTCGAGCTTT,1.03
14,GATGTGCTAT,1.02
15,TCCTTTCGGG,1.05
16,GGAGCGTTGA,1.08
17,GCATGTTACT,1.12
18,TGGGATTCAA,0.992
19,AGAATATCAG,0.989
20,TGAGATCACC,0.994
21,TGGTCTTTAT,1.03
22,TGGAACTCGC,1.05
23,AGTTGAGCG,0.961

row,Sequence,switch fluorescence ratio
1,ACTGATGGCT,1.05
2,TGTGAGTAGT,0.968
3,TTACTCCCTT,1.36
4,AACTATTGTT,0.971
5,GTATCCGTG,1.05
6,ATCTTGAAAA,0.998
7,AAACACTGTG,1.03
8,ATGGCGTGTG,1.02
9,GTTAGAACTC,0.981
10,GTGTAAAGCG,1.01
11,ACCCAATAAG,1.04
12,CTAATTTGAG,1.01
13,GATGACCTTG,0.976
14,TCCTGATCAT,1.04
15,AAGGGGTGT,0.96
16,AATGTTGGG,0.944
17,GACAGGAGAG,0.988
18,GCGGGTTTG,1.03
19,GCGGGTTAAT,0.955
20,CCCGCCAGAA,1.57
21,TTATTGAAGG,0.957
22,ATGAAGTCT,1.16
23,TCCGTGGGTT,1.01

row,Sequence,switch fluorescence ratio
1,CTGAATGTA,0.962
2,TGATATGTG,1.02
3,AATGTCTTTA,1.02
4,ATATCAGAG,1.02
5,CGGCCAAGAT,1.07
6,GGCGTCGGTG,1.04
7,TTCAAGGA,1.02
8,TAATAGTGAG,0.981
9,CAGCTGGAG,1.01
10,TATAAATAA,0.964
11,GCATACTTGA,1.03
12,ATAGAGGTGT,1.12
13,GCCTAAGATT,0.917
14,AGAAGAGGG,1.02
15,GATCAGGGT,0.969
16,GAAGCATGCC,1.14
17,CACGGCGGT,1.04
18,ATTTCCGCTT,1.79
19,GACTTTTAAC,0.979
20,GAGTTGGCGA,0.99
21,GGTGCAGGC,0.72
22,ACAGCAATTT,1.5
23,CTGCCATATA,1.12

row,Sequence,switch fluorescence ratio
1,CTTTATCTGC,1.01
2,CTGTACACTG,1.05
3,ACCAGGTCTC,1.06
4,GATTGAAGGA,0.973
5,TCGATTGAGC,0.99
6,GGTGAAACT,0.99
7,GCGCCGCCTG,1.06
8,GGGACCCGTT,1.04
9,GTGAGAGAGG,1.01
10,ATTGTCTTCC,1.7
11,CTTTTTTATA,0.98
12,ACTTCGTCAC,1.56
13,CAGAGGGAAG,1
14,ATACTGGTGG,1.03
15,AGGGTTGCTT,0.984
16,TTAAAGTAA,1.02
17,AGCTCCGGGA,1.01
18,TAAATATCTT,0.983
19,CGGGGGTAGC,0.978
20,AATATTATGC,1.05
21,CGGGTGGAAA,1.05
22,GAATTTATT,1
23,ACGGACCGTA,0.987

row,Sequence,switch fluorescence ratio
1,CGTTCTAATA,1.01
2,GCCGCGGTAG,1.56
3,AAAACTCTCC,1.22
4,ATTAGATAGC,0.943
5,GGGTCAATGT,1.02
6,TGGGCAATCG,2.85
7,TCGTACGGAT,1.03
8,GCGTCCCTGC,1.04
9,GGCTATGTAT,0.96
10,AAATGAGACT,0.979
11,TGCTATGTAT,0.984
12,GGTTTAGAAA,1.01
13,GCTAGGAAAC,1
14,CTTGGTATTT,0.984
15,GTAGGGGA,1.1
16,AATTATCCGG,0.994
17,CCCCGGCAGA,3.07
18,TTGTTACTGC,0.993
19,AATATGGATT,0.936
20,AAATGGAAGT,0.983
